# Test results reported in the RNAGym collection of RNA variant scans (doi:10.1093/nar/gkz1192).
# The source gives no read counts; variants with many changes may rest on few reads.
# B1: CPEB3 Ribozyme (parent)
# chain: UAACAGGGGGCCACAGCAGAAGCGUUCACGUCGCAGCCCCUGUCAGAUUCUGGUGAAUCUGCGAAUUCUGCUGUAUAUCUC
# Variants of: B1
# Test: self-cleavage, relative activity (ratio to wild type); higher = more cleavage; in vitro, sequencing
# How it was run: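 Libraries of CPEB3 self-cleaving ribozyme mutants came from rounds of error-prone PCR and carried barcodes, which DNA sequencing matched to variants. In vitro transcription used T7 RNA polymerase at 37°C for 5 hours, with a further 15 min in DNase I before EDTA stopped the reaction; the ribozymes cleaved during both steps. The RNA was reverse transcribed with template switching and sequenced on Illumina. Relative activity is the cleaved/total read fraction of a variant divided by that of the unmutated ribozyme, averaged over three batches with at least 5 reads.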
row,Variant,self-cleavage
1,UAACAGGGGGCCACAGCAGGAGCGCUCACGUCGCAGCCCCUGUCGGAUUCUGGUGAAUCUGCGAAUUCCGCUGUAUGUCUC [A20G U25C A45G U69C A77G],0.05
2,UAACAGGGGGCCACAGCAGGAGCGCUCACGUCGCAGCCCCUGCCAGAUUCUGGUGAAUCUGCGAAUUCCGCUGUGUAUCUC [A20G U25C U43C U69C A75G],0.1
3,UAACAGGGGGCCACAGCAGGAGCGCUCACGUCGCAGCCCCGGUCAGAUUCUGGUGAAUCUGCGAAUUCUGCUGUAUAUCUC [A20G U25C U41G],0.12
4,UAACAGGGGGCCACAGCAGGAGCGCUCACGUCGCAGCCCCUGUCAGACUCUGGUGAAUCUGCGAAUUCUGCUGCAUAUCUC [A20G U25C U48C U74C],0.32
5,UAACAGGGGGCCACAGCAGGAGCGCUCACGUCGCAGCCCCUGUCAGAUUCUGGUGAAUCUGCGAUUCCUGCUGUAUAUCUC [A20G U25C A65U U67C],0.44
6,UAACAGGGGGCCACAGCAGGAGCGCUCACGUAGCAGCCCCUGUCAGAUUCUGGAGUAUCUGCGAAUUCUGCUGUAUACCUC [A20G U25C C32A U54A A56U U78C],0.13
7,UAACAGGGGGCCACAGCAGGAGCGCUCACGUCGCAGCCCCUGUCAGAUUCUGGCGAGUCUGCGAAUUCUGCUGUAUAUCUC [A20G U25C U54C A57G],0.17
8,UAACAGGGGGCCACAGCAGGAGCGCUCACGCCGCAGCCCCUGUGAGAUUCUGGUGUAUCUGCGAAUUCUGCUGUAUAUCAC [A20G U25C U31C C44G A56U U80A],0.18
9,UAACAGGGGGCCACAGCAGGAGCGCUCACGUAGCAGCCCCAGUCAGAUCCUGGUGAAUCUGCGAAUUCAGCUGUAUAUCUC [A20G U25C C32A U41A U49C U69A],0.11
10,UAACAGGGGGCCACAGCAGGAGCGCUCACGUCGCAGCCCCUGCCAGAUUCUGGUGAAUCUGCGAAUUCUGCUGUACAUCUC [A20G U25C U43C U76C],0.35
11,UAACAGGGGGCCACAGCAGGAGCGCUCACGUCGCAGCCCCUGUCGGAUUCUGGUGAAUCCGCGAAUUCUGCUGUAUAUCUC [A20G U25C A45G U60C],0.15
12,UAACAGGGGGCCACAGCAGGAGCGCUCACGACGCAGCCCCUGUCAGACUCUGGUGAAUCUGCGAAUUCUGCUGUAUAUCUC [A20G U25C U31A U48C],0.33
13,UAACAGGGGGCCACAGCAGGAGCGCUCACGUCGCAGCCCCUGUCAGAUUCAGGUGAAUCUGCGAAUUCUGCUGUAUAUCUC [A20G U25C U51A],0.39
14,UAACAGGGGGCCACAGCAGGAGCGCCCACGUCGCAGCCCCUGUCAGCUUCUGGUGAAUCUGCGGAUUCUGCUGUAUAUCUC [A20G U25C U26C A47C A64G],0.13
15,UAACAGGGGGCCACAGCAGGAGCGCUCACGUCGCAGCCCCCGUCAGACUCUGGUGAAUCUGCGAAUUCUGCUGUAUAUCUC [A20G U25C U41C U48C],0.25
16,UAACAGGGGGCCACAGCAGGAGCGCUCACGUCGCAGCCCCUGCCAGAUUCUGGUGAAUCCGCGAAUUCCGCUGUAUGUCUC [A20G U25C U43C U60C U69C A77G],0.02
17,UAACAGGGGGCCACAGCAGGAGCGCUCACGUCGCAGCCCCUGUCAGAUUCUGGUGGAUCUGCGAAUUCUGCAGUAUAUCAC [A20G U25C A56G U72A U80A],0.1

row,Variant,self-cleavage
1,UAACAGGGGGCCACAGCAGGAGCGCUCACAUCUCAGCCCCUGUCAGAUUCUGGCGAAUCUGCGAAUUCUGCUGUAUAUCUC [A20G U25C G30A G33U U54C],0.12
2,UAACAGGGGGCCACAGCAGGAGCGCUCACGUCGCAGCCCCUGUCAGCUUCUGGUGGAUCUGCGAAUUCUGCUGUAUAUCUC [A20G U25C A47C A56G],0.29
3,UAACAGGGGGCCACAGCAGGAGCGCUCACGACGCAGCCCCUGUCAGACUCUGCUGAAUCUGCGAAUUCUGCUGAAUAUCUC [A20G U25C U31A U48C G53C U74A],0.04
4,UAACAGGGGGCCACAGCAGGAGCGCCCACGUCGCAGCCCCUGUCAGAUUCUGGUGAAUCUGCGAAUUCUGCCGUAUAUCUC [A20G U25C U26C U72C],0.35
5,UAACAGGGGGCCACAGCAGGAGCGCUCACGUCCCAGCCCCUGUCAGAUUCUGGUGAAGCUGCGAAUUCUGCUGUAUAUCUC [A20G U25C G33C U58G],0.04
6,UAACAGGGGGCCACAGCAGGAGCGCUCACGUCGCUGCCCCUGUCAGAUUCUGGGGAAUCUGCGAAUUCUACUAUAUAUCUC [A20G U25C A35U U54G G70A G73A],0.1
7,UAACAGGGGGCCACAGCAGGAGCGCUCACGUCGCAGCCCCUGUCAGAUUCUGGUGGAUCUGCGAAUUCUGCUGUAUGUCUC [A20G U25C A56G A77G],0.49
8,UAACAGGGGGCCACAGCAGGAGCGCUCACGUCGCAGCCCCUGUCAGAUUCUGGUGAGUCUGCGAAUUCUACUAUAUAUCUC [A20G U25C A57G G70A G73A],0.04
9,UAACAGGGGGCCACAGCAGGAGCGCUCACGUCGCGGCACCUGUCAGAUUCAGGUGAAUCUGCGAAUUCUGCUGUAUAUCUC [A20G U25C A35G C38A U51A],0.08
10,UAACAGGGGGCCACAGCAGGAGCGCUCACGUCGCAGCCCCUGUCAGAUUCCGGUGAAUCUGCGAAUUCUGCUGUAUAUCCC [A20G U25C U51C U80C],0.3
11,UAACAGGGGGCCACAGCAGGAGCGCUCACGUCGCAGCCCCCGUCAGAUUCAGGUGAAUCUGCGAAUUCUGCUGUAUAUCUC [A20G U25C U41C U51A],0.19
12,UAACAGGGGGCCACAGCAGGAGCGCUCACGUCGCAGCCCCUGUCAGAUUCUAGUGAAUCUGCGAAUUCUGCUGUAUAUCUC [A20G U25C G52A],0.27
13,UAACAGGGGGCCACAGCAGGAGCGCUCACGUCGCAGCCCCCGUUAGAUUCAGGCGAAUCUGCGAAUUCUGCUGUAUAUCUC [A20G U25C U41C C44U U51A U54C],0.27
14,UAACAGGGGGCCACAGCAGGAGCGCUCACGUCGCAGCCCCUGUCAGAUCCUGGUGAAUCUGCGAAUUCUGCUGUAUAUCUC [A20G U25C U49C],0.07
15,UAACAGGGGGCCACAGCAGGAGCGCUCACGUCGCAGCCCCUGUCAGAUCCUGGUGGAUCUGCGAAUUCUGCUGUAUAUCUC [A20G U25C U49C A56G],0.36
16,UAACAGGGGGCCACAGCAGGAGCGCUCACGUCGCAGCCCCUGUCCGAUUCUGGUGAAUCUGCGAAUUCUGCCGUAUACCUC [A20G U25C A45C U72C U78C],0
17,UAACAGGGGGCCACAGCAGGAGCGCUCACGUCGCAGCCCCAGUCAGAUUCUGGUGAAUCUGCGAAUUCUGCUGCAUAUCUC [A20G U25C U41A U74C],0.46
